Measured values from the supplement of paper PMC8728848.
Some of the results follow.

Tests used:
Assay in all cases: glycan array binding signal (z-score within array); higher = stronger binding
Settings in all cases: glycan notation: IUPAC condensed, linker removed
Gal(b1-4)Glc6S = molecular target: Gal(b1-4)Glc6S
In short: (§1)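 Columns mapping to the same glycan were averaged after glycan names were converted to IUPAC-condensed notation. The data come from 3228 arrays in the Consortium for Functional Glycomics database, limited to those with an available protein sequence. Binding is reported as a within-array Z-score averaged across arrays of one protein sequence and across linkers.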

Gal(b1-4)GlcNAc = molecular target: Gal(b1-4)GlcNAc
In short: as §1

[1] = molecular target: Gal(b1-4)GlcNAc(a1-6)Gal(b1-4)GlcNAc
In short: as §1

Gal(b1-4)GlcNAc(b1-2)Man = molecular target: Gal(b1-4)GlcNAc(b1-2)Man
In short: as §1

[2] = molecular target: Gal(b1-4)GlcNAc(b1-2)Man(a1-3)Man(b1-4)GlcNAc(b1-4)GlcNAc
In short: as §1

[3] = molecular target: Gal(b1-4)GlcNAc(b1-2)Man(a1-3)[Gal(b1-4)GlcNAc(b1-2)Man(a1-6)]Man(b1-4)GlcNAc(b1-4)GlcNAc
In short: as §1

[4] = molecular target: Gal(b1-4)GlcNAc(b1-2)Man(a1-3)[Gal(b1-4)GlcNAc(b1-2)Man(a1-6)]Man(b1-4)GlcNAc(b1-4)[Fuc(a1-6)]GlcNAc
In short: as §1

[5] = molecular target: Gal(b1-4)GlcNAc(b1-2)Man(a1-3)[Gal(b1-4)GlcNAc(b1-2)Man(a1-6)][Gal(b1-4)GlcNAc(b1-4)]Man(b1-4)GlcNAc(b1-4)[Fuc(a1-6)]GlcNAc
In short: as §1

[6] = molecular target: Gal(b1-4)GlcNAc(b1-2)Man(a1-3)[Gal(b1-4)GlcNAc(b1-2)Man(a1-6)][GlcNAc(b1-4)]Man(b1-4)GlcNAc(b1-4)[Fuc(a1-6)]GlcNAc
In short: as §1

[7] = molecular target: Gal(b1-4)GlcNAc(b1-2)Man(a1-3)[GlcNAc(b1-2)Man(a1-6)]Man(b1-4)GlcNAc(b1-4)GlcNAc
In short: as §1

[8] = molecular target: Gal(b1-4)GlcNAc(b1-2)Man(a1-3)[GlcNAc(b1-4)][Gal(b1-4)GlcNAc(b1-2)Man(a1-6)]Man(b1-4)GlcNAc(b1-4)GlcNAc
In short: as §1

[9] = molecular target: Gal(b1-4)GlcNAc(b1-2)Man(a1-3)[Man(a1-6)]Man(b1-4)GlcNAc(b1-4)GlcNAc
In short: as §1

[10] = molecular target: Gal(b1-4)GlcNAc(b1-2)Man(a1-6)Man(b1-4)GlcNAc(b1-4)GlcNAc
In short: as §1

[11] = molecular target: Gal(b1-4)GlcNAc(b1-2)Man(a1-6)[GlcNAc(b1-2)Man(a1-3)]Man(b1-4)GlcNAc(b1-4)GlcNAc
In short: as §1

[12] = molecular target: Gal(b1-4)GlcNAc(b1-2)Man(a1-6)[Man(a1-3)]Man(b1-4)GlcNAc(b1-4)GlcNAc
In short: as §1

[13] = molecular target: Gal(b1-4)GlcNAc(b1-2)[Gal(b1-4)GlcNAc(b1-4)]Man(a1-3)[Gal(b1-4)GlcNAc(b1-2)Man(a1-6)]Man(b1-4)GlcNAc(b1-4)GlcNAc
In short: as §1

[14] = molecular target: Gal(b1-4)GlcNAc(b1-2)[Gal(b1-4)GlcNAc(b1-4)]Man(a1-3)[Gal(b1-4)GlcNAc(b1-2)[Gal(b1-4)GlcNAc(b1-6)]Man(a1-6)]Man(b1-4)GlcNAc(b1-4)GlcNAc
In short: as §1

[15] = molecular target: Gal(b1-4)GlcNAc(b1-2)[Gal(b1-4)GlcNAc(b1-4)]Man(a1-3)[Gal(b1-4)GlcNAc(b1-2)[Gal(b1-4)GlcNAc(b1-6)]Man(a1-6)][GlcNAc(b1-4)]Man(b1-4)GlcNAc(b1-4)GlcNAc
In short: as §1

[16] = molecular target: Gal(b1-4)GlcNAc(b1-2)[Gal(b1-4)GlcNAc(b1-4)]Man(a1-3)[GlcNAc(b1-4)][Gal(b1-4)GlcNAc(b1-2)Man(a1-6)]Man(b1-4)GlcNAc(b1-4)GlcNAc
In short: as §1

[17] = molecular target: Gal(b1-4)GlcNAc(b1-2)[Gal(b1-4)GlcNAc(b1-4)]Man(a1-3)[GlcNAc(b1-4)][Gal(b1-4)GlcNAc(b1-2)[Gal(b1-4)GlcNAc(b1-6)]Man(a1-6)]Man(b1-4)GlcNAc(b1-4)GlcNAc
In short: as §1

[18] = molecular target: Gal(b1-4)GlcNAc(b1-2)[Gal(b1-4)GlcNAc(b1-6)]Man(a1-6)[Gal(b1-4)GlcNAc(b1-2)Man(a1-3)]Man(b1-4)GlcNAc(b1-4)GlcNAc
In short: as §1

[19] = molecular target: Gal(b1-4)GlcNAc(b1-2)[Gal(b1-4)GlcNAc(b1-6)]Man(a1-6)[Gal(b1-4)GlcNAc(b1-2)Man(a1-3)]Man(b1-4)GlcNAc(b1-4)[Fuc(a1-6)]GlcNAc
In short: as §1

B1: LSECtin (Homo sapiens), Q6UXB4 (protein)
chain: MDTTRYSKWGGSSEEVPGGPWGRWVHWSRRPLFLALAVLVTTVLWAVILSILLSKASTERAALLDGHDLLRTNASKQTAALGALKEEVGDCHSCCSGTQAQLQTTRAELGEAQAKLMEQESALRELRERVTQGLAEAGRGREDVRTELFRALEAVRLQNNSCEPCPTSWLSFEGSCYFFSVPKTTWAAAQDHCADASAHLVIVGGLDEQGFLTRNTRGRGYWLGLRAVRHLGKVQGYQWVDGVSLSFSHWNQGEPNDAWGRENCVMMLHTGLWNDAPCDSEKDGWICEKRHNC
glycan array binding signal (z-score) (Gal(b1-4)Glc6S): -0.18 | glycan array binding signal (z-score) (Gal(b1-4)GlcNAc): -0.189 | glycan array binding signal (z-score) [1]: -0.209 | glycan array binding signal (z-score) (Gal(b1-4)GlcNAc(b1-2)Man): -0.137 | glycan array binding signal (z-score) [2]: -0.181 | glycan array binding signal (z-score) [3]: -0.21 | glycan array binding signal (z-score) [4]: -0.143 | glycan array binding signal (z-score) [5]: -0.137 | glycan array binding signal (z-score) [6]: -0.133 | glycan array binding signal (z-score) [7]: 1.71 | glycan array binding signal (z-score) [8]: -0.138 | glycan array binding signal (z-score) [9]: -0.152 | glycan array binding signal (z-score) [10]: -0.028 | glycan array binding signal (z-score) [11]: 5.9 | glycan array binding signal (z-score) [12]: 0.136 | glycan array binding signal (z-score) [13]: -0.157 | glycan array binding signal (z-score) [14]: -0.138 | glycan array binding signal (z-score) [15]: -0.147 | glycan array binding signal (z-score) [16]: -0.119 | glycan array binding signal (z-score) [17]: -0.138 | glycan array binding signal (z-score) [18]: -0.137 | glycan array binding signal (z-score) [19]: -0.116
